# Some of the results follow. Antibody binding of pooled human sera (four to six donors per pool; dilution not stated) to peptides of the Trypanosoma cruzi antigen TSSA on microarrays. Quantile-normalised fluorescence in arbitrary units, mean of duplicate arrays; higher = more binding. No active / inactive call. The uninfected pools are read here as the healthy donors of the same country. The strongest signals lie near the top of the scale (about 60,000).
# Tested on: pooled sera of chronic Chagas disease patients, Argentina
# Experiment: antibody binding signal (normalised fluorescence) (arbitrary fluorescence units); higher = stronger serum antibody binding to peptide
# Experimental: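 Microarray of 15-residue peptides over residues 30-55 of Trypanosoma cruzi TSSAII, each with 1 to 10 substitutions at naturally variable positions, probed with one serum pool per country.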
row,Sequence,antibody binding signal
1,EKKAATGGTPSQPGA,960
2,TDNKTAAGETPSPSG,268
3,TDNKTATGGTPSPPG,294
4,TISTPPSGKENKPAT,19600
5,TENKPATGGAPSPPG,43400
6,GTDNKAAAGGAPSQS,333
7,KDNKAATGETPSPPG,1840
8,TENKPATGGAPSQPG,42000
9,GKENKAATGEAPSQP,30100
10,DKKTATGGTPSQSGA,543
11,TPPSGKDNKAAAGET,624
12,TPPSGKENKTAAGET,14400
13,PPSGKENKTAAGGTP,8800
14,TENKTATGGTPSPSG,21500
15,NKTATGETPSQSGAS,876
16,SGTDNKPAAGGTPSQ,2580
17,TISTPPSGTEKKTAA,37000
18,TISTPPSGTDKKTAT,30700
19,TDNKPAAGGTPSPSG,1420
20,GTDNKAATGGTPSQS,421

row,Sequence,antibody binding signal
1,KDNKAAAGETPSQSG,280
2,TEKKAAAGETPSQPG,1790
3,ENKTAAGGAPSPSGA,362
4,NKPAAGGTPSPSGAS,312
5,KENKAAAGGTPSPPG,139
6,SGKDNKAAAGETPSP,798
7,KKTATGGTPSQPGAS,379
8,DNKAAAGGAPSPPGA,393
9,SSTPPSGKDNKPATG,16300
10,TEKKAATGETPSQSG,2460
11,TEKKAAAGEAPSPPG,1420
12,TENKTAAGEAPSQSG,17000
13,GKDNKAATGETPSQS,8940
14,TPPSGTDNKTAAGGT,46000
15,PSGTENKAAAGETPS,46800
16,GKENKTAAGEAPSQS,6050
17,DKKAATGGAPSQPGA,996
18,GKDNKAATGGTPSPS,1060
19,TEKKAAAGETPSPSG,977
20,KDNKAAAGGTPSPSG,225

# Source: the supplement of paper PMC10441789
